The text below walks through data of ChEMBL document CHEMBL1201862, “PubChem BioAssay data set” (2004).

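Dose response: 5 concentrations. Exposure: 48 h. Format: 96-well plates. Endpoint: linear interpolation; highest concentration if not reached. GI50 marks 50% less growth.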 Activity calls are given as the source filed them. No stated cut-off is given here; in the data, active = GI50 up to about 1.1 µM and inactive = higher. A value given as a limit tells only on which side of the number the result lay.

The test system of this test is NCI-H322M. As to the kind of experiment: growth of human tumour cells (NCI), 48 h.
Take `O=C(CCN1CCCCC1)Nc1ccc2c(c1)C(=O)c1ccc(NC(=O)CCN3CCCCC3)cc1C2=O`: the GI50 was inactive: 5 µM.
To `CC1=NN(C(=O)c2ccc(Cl)cc2)C(=O)/C1=C/c1cccc(O)c1` belongs inactive: > 100 µM; to `Clc1ccc(CN2CCCN(Cc3ccc(Cl)cc3)C2c2cc3ccccc3c3ccccc23)cc1`, inactive: 66.8 µM; to `COc1c(NC(C)=O)c2ccccc2c2ccccc12`, inactive: > 100 µM.
To `COc1cc2ccc(C(=O)NCCCNC(=O)c3ccc4cc(OC)c(OC)cc4c3)cc2cc1OC` belongs inactive: > 100 µM; to `Cc1c2c(OCC3CCCCO3)nn(C)c(=O)c2c(C)n1-c1ccccc1` (centres undefined), inactive: 18.1 µM.
To `CC(C)[Si]1(C(C)C)OCC2OC(n3c(C(=O)c4ccccc4)cc(=O)[nH]c3=O)CC2O[Si](C(C)C)(C(C)C)O1` (centres undefined) belongs inactive: 7.91 µM; to `COc1ccc(O)c2c1C(=O)CCCC2=O`, inactive: > 100 µM; to `CC(=O)c1ccc(Nc2nc3ccccc3c3occc23)cc1`, inactive: 28.2 µM.
For `O=C(O)CN1CCCC(Cc2c[nH]c3ccccc23)C1` (centres undefined), the GI50 was inactive: > 100 µM.
Regarding `C=CC[C@@]12CCC(=O)C=C1CCCC2=O`, the GI50 was inactive: 91 µM.
To `O=C(CC(CC(=O)Oc1c(Br)cc(Br)cc1C(=O)O)C(=O)Oc1c(Br)cc(Br)cc1C(=O)O)Oc1c(Br)cc(Br)cc1C(=O)O` belongs inactive: 33.1 µM.
To `CCN(CC)CCC(=O)N1CCc2c([nH]c3ccccc23)C1c1cccnc1` (centres undefined) belongs inactive: > 100 µM; to `C=C1CC[C@@H]2[C@](C)(COC(=O)CCC(=O)O)CCC[C@@]2(C)[C@@H]1CCC1=CC(=O)OC1`, inactive: > 100 µM.
Turning to `Cc1ccc(/N=N/C(=N\c2ccc(Cl)cc2)c2ccc(N(CCC#N)CCC#N)cc2)cc1`, the GI50 is inactive: > 100 µM.
To `N[C@H](C(=O)O)[C@@H](Cl)CC(=O)O` belongs inactive: > 100 µM.
Take `COc1cc2ccc(C(C)NCC#N)cc2cc1OC` (centres undefined): the GI50 is inactive: > 100 µM.
In the case of `O=C1NC(=O)/C(=C\c2ccncc2)N1` it was inactive: > 100 µM; in that of `C=CC(C)(C)n1cc(C2=C(O)C(=O)C(c3cn(C(C)(C)C=C)c4ccccc34)=C(O)C2=O)c2ccccc21`, inactive: 3.48 µM; in that of `O=C(/C=C1\Nc2ccccc2C(=O)N1c1ccccc1Cl)c1ccccc1`, inactive: > 100 µM.
On to `CCOC(=O)c1cc(-c2ccn(C(C)=O)c2)c(-c2cc(C)co2)[nH]1`, for which the GI50 was inactive: > 100 µM.
To `O=C(Nc1nc(C23CC4CC(CC(C4)C2)C3)cs1)c1cc2c(ccc3ccccc32)oc1=O` belongs inactive: > 100 µM; to `CC1N(C)C(=O)OC12CCN(CCCC(=O)c1ccc(F)cc1)CC2` (centres undefined), inactive: > 100 µM.
For the compound `CCCCCCCCCC(=O)OCC1OC(n2cc(F)c(=O)[nH]c2=O)C(NC(=O)OCc2ccccc2)C(OC(=O)CCCCCCCCC)C1O` (centres undefined), the GI50 is inactive: 56.6 µM.
To `CCN(CC)C(=S)N/N=C(\C)c1ccccc1O` belongs inactive: 40.4 µM; to `CCCN(CCC)c1c([N+](=O)[O-])cc(C(=O)N(CCO)CCO)cc1[N+](=O)[O-]`, inactive: > 100 µM.
As to `Cc1cc2[nH]c3c(C#N)c(-c4ccccc4)c(/N=N/c4ccc(F)cc4)c(=O)n3c2cc1C`, the GI50 was inactive: > 100 µM.
To `Cc1ccc(C)c(NC(=O)C(=O)CC(=O)c2cccc3ccccc23)c1` belongs inactive: > 100 µM; to `Cc1c(/N=N/c2ccc(Cl)cc2)c(C)n(C2OC(CO)C(O)C(O)C2O)c(=S)c1C#N` (centres undefined), inactive: 37.6 µM.
To `O=C1c2ccccc2CC12CCC1(CC2)OCCO1` belongs inactive: > 100 µM; to `NS(=O)(=O)c1ccc(NC(=O)c2cccc3c(=O)c4ccccc4[nH]c23)cc1`, inactive: 54.6 µM.
To `Oc1cc(CN2CCOCCOCCOCCOCC2)c(O)cc1CN1CCOCCOCCOCCOCC1` belongs inactive: > 100 µM.
In the case of `CSC1=NC(C(N)=O)C(N)N1C` (centres undefined), the GI50 was inactive: > 100 µM.
To `CC(=O)O[C@@H]1C[C@@]23C[C@@]24CC[C@H](OC2OCC(O)C(O)C2O)C(C)(C)[C@@H]4CC=C3[C@]2(C)C[C@@H]3OC4(C[C@@H](C)[C@@H]3[C@@]12C)OC(O)[C@@]1(C)O[C@@H]41` (some centres undefined) belongs inactive: 61.1 µM.
In the case of `CCOC(=O)c1nc2ccccc2nc1Nc1cc(OC)c(OC)c(OC)c1` it was inactive: > 100 µM; in that of `CCC1(O)CC2CC(=O)OC2C1O` (centres undefined), inactive: > 100 µM; in that of `COC(=O)C12CCC(C(=O)OC)(Cc3c(c4ccccc4n3S(=O)(=O)c3ccccc3)C1)C2=O` (centres undefined), inactive: > 91.4 µM.
To `CC(=O)OCC1OC(n2c(N)c(C#N)c(C)c(C#N)c2=S)C(OC(C)=O)C(OC(C)=O)C1OC(C)=O` (centres undefined) belongs inactive: > 100 µM; to `COc1cc2c(cc1OC)C/C(=N\O)c1cc(OC)c(OC)cc1/C=C\2`, inactive: 7.53 µM; to `COc1cc2ccc3c4cc(OC)c(OC)cc4c[n+](C)c3c2cc1O`, inactive: > 100 µM.
On to `COC1=C(N=[N+]=[N-])C(=O)c2ncccc2C1=O`, for which the GI50 was inactive: 17.9 µM.
In the case of `CC1=NN(C(=O)c2ccncc2)C(=O)C1/N=N/c1ccc(F)cc1` (centres undefined) it was inactive: > 100 µM; in that of `CCOC(=O)C(=[N+]=[N-])C(=O)C1(C(=O)OCC)CCN(C(=O)c2ccccc2)C1=O` (centres undefined), inactive: > 100 µM; in that of `CC(=O)OC1(C)N=NC2(CCCCC2)O1` (centres undefined), inactive: > 100 µM.
Consider `CC1=NN(c2cccc(Cl)c2)C2(SCC(=O)N2c2nc3ccccc3s2)/C1=C\c1cccs1` (centres undefined), for which the GI50 is inactive: 18.9 µM.
On to `Cc1cc(Cc2cc(C)c(NC(=O)C(=O)C3CCC4=C(SC5C=CC=CC5N4)C3=O)c(C(C)C)c2)cc(C(C)C)c1NC(=O)C(=O)C1CCC2=C(SC3C=CC=CC3N2)C1=O` (centres undefined), for which the GI50 is inactive: > 100 µM.
In the case of `O=C1NC2(CCCCC2)N=C2C(Cl)CCCC12Cl` (centres undefined) it was inactive: > 100 µM; in that of `O=C1CSC(c2cccc(Oc3ccccc3)c2)N1c1cccc(Cl)c1Cl` (centres undefined), inactive: 99.1 µM.
In the case of `N=C(N)NS(=O)(=O)c1ccc(NC(=O)c2ccc3nc4ccccc4c(O)c3c2)cc1` it was inactive: > 100 µM.
To `CC1(C)CC[C@]2(C(=O)O)[C@H](O)C[C@]3(C)C(=CC[C@@H]4[C@@]5(C)CC[C@H](OC6OC(C(=O)O)C(O)C(O)C6O)C(C)(C)[C@@H]5CC[C@]43C)[C@@H]2C1` (some centres undefined) belongs inactive: 50.8 µM; to `CCOc1nc(N)nc(C)c1/N=N/c1ccc(Cl)cc1`, inactive: > 100 µM.
Regarding `O=C(O)c1cccc(S(=O)(=O)NN2C(=O)CSC2c2ccccc2Cl)c1` (centres undefined), the GI50 was inactive: > 100 µM.
For the compound `CCOC(=O)c1[nH]c2cccc3c2c1CC(Br)C3=O` (centres undefined), the GI50 is inactive: 10.1 µM.
In the case of `COc1ccc(Br)c(/C=N\c2cccc3cc(OC)c(OC)cc23)c1` it was inactive: 75 µM; in that of `CC(=O)Nc1ccc2c(c1)[nH]c(=O)c1cc(Cl)ccc12`, inactive: 23 µM.
To `Cc1ccc2c(c1)C(=O)C1(C2)Cc2ccc(C)cc2C1=O` belongs inactive: > 100 µM.
To `O=[N+]([O-])c1ccc(-c2csc(=[N+]3CCCCC3)s2)cc1` belongs inactive: 31.3 µM.
As for `CC1C(C#N)(C#N)C(C#N)=C(N)C1(Cl)[N+](=O)[O-]` (centres undefined), the GI50 was inactive: 15.5 µM.
With `O=C(CC(NC(=O)C(F)(F)F)C(=O)O)OCc1ccccc1` (centres undefined), the GI50 was inactive: > 100 µM.
To `C=CCn1c(-c2ccc(-c3cs/c(=N\N=O)n3CC=C)cc2)cs/c1=N\N=O` belongs inactive: > 100 µM.
In the case of `Cc1ccc(CC(=O)Nc2ccc(NC(=O)/C=C/NC(=O)/C=C/c3ccc(-c4ccccc4)cc3)cc2C(=O)c2ccccc2)cc1` it was inactive: 3.47 µM; in that of `CC(=O)Nc1ccc(N2C(=O)/C(=C\c3cccc(Oc4ccccc4)c3)S(=O)(=O)C2c2ccccc2)cc1` (centres undefined), inactive: > 100 µM; in that of `Cc1ccc(C)c(NC(=O)CC/C(=N\NC(=O)C(N)=O)C(C)C(=O)c2ccc(O)cc2)c1` (centres undefined), inactive: > 100 µM.
In the case of `COc1ccc(C(=O)N2CCN(c3ccc4[nH]c(=O)oc4c3)CC2)cc1` it was inactive: > 100 µM.
Regarding `[N-]=[N+]=NC1=C(c2ccccc2)C(=O)c2cccc3cccc1c23`, the GI50 is inactive: 18.9 µM.
In the case of `Cc1nc2ccccc2c(-n2cccn2)c1CCn1cccn1` it was inactive: > 100 µM; in that of `CSC(=N/N=C(\C)c1ccc(S(=O)(=O)N(C)c2ccccc2)cc1)SC`, inactive: > 67.9 µM; in that of `O=C(CCC1CCCCC1)NCc1ccc(C(=O)O)cc1`, inactive: > 100 µM.
As to `COc1ccc(-c2cc(=O)c3ccccc3[nH]2)c(OC)c1`, the GI50 was inactive: > 100 µM.
On to `CC(C)NC(=O)OCc1c(COC(=O)NC(C)C)c(-c2ccc[n+](COC(=O)C(C)C)c2)n2c1CCC2`, for which the GI50 is inactive: 97.9 µM.
To `CCCCCCCCCCCCCCCCP(=O)(O)OP(=O)(O)OCC1OC(n2cnc3c(N)ncnc32)C(O)C1O` (centres undefined) belongs inactive: 52.6 µM.
In the case of `N=C(N)Nc1nc2cc([N+](=O)[O-])ccc2[nH]1` it was inactive: 73.1 µM; in that of `COC(=O)[C@]12CCC(C)[C@H](C)[C@H]1C1=CCC3[C@@]4(C)CC[C@H](OC(C)=O)C(C)(C)C4CC[C@@]3(C)C1(C)C(O)C2` (some centres undefined), inactive: > 100 µM.
As to `OCC1O[C@H](O[C@@H]2CCCN3CC(O)C(O)[C@@H]23)C(O)C(O)C1O` (some centres undefined), the GI50 was inactive: > 100 µM.
As to `COc1cc(/C=N/c2ccc(S(N)(=O)=O)cc2)cc(OC)c1`, the GI50 is inactive: > 50 µM.
Consider `Cc1cc[n+]2c(c1)-c1cc(C)cc[n+]1CC2`, for which the GI50 is inactive: > 100 µM.
In the case of `CCCCCCCCCCCCCCCCCCCCCCC(=O)N[C@H]1CCc2cc(OC)c(OC)c(OC)c2-c2ccc(SC)c(=O)cc21` it was inactive: 54 µM; in that of `CCN(CC)CCCC(C)NC(=O)c1ccc2c(c1)C(=O)c1ccccc1C2=O` (centres undefined), inactive: 20.8 µM; in that of `CC(C)(C)c1ccc(-c2nc3ccccc3c(=O)o2)cc1`, inactive: > 100 µM.
